In the supplement of paper PMC4967469:
IC50 is the fitted dose that halves viability relative to control wells, and lower means more sensitive; a limit (>, <) means that the fit lies beyond the doses tested. For AUC the same curve is integrated over the 256-fold range of doses and scaled to a fraction; the more sensitive the line, the further below 1. For part of these data: An inferred top dose was calculated from the reported fits. For part of these data: Drugs with an entry number were screened twice under separate entries, and the two screens often disagree.

Key:
Test in all cases: Viability of human cancer cell lines after 72 h of drug (GDSC screen)
[1] = compound: CN(C)C/C=C/C(=O)Nc1cc2c(Nc3ccc(F)c(Cl)c3)ncnc2cc1O[C@H]1CCOC1 [Afatinib]
Experimental: (§1)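 Human cancer cell lines in 384-well plates, medium with 10% serum, drug for 72 h over a 256-fold dose range (nine 2-fold or five 4-fold steps up to the top dose). Adherent lines were fixed and stained with the nucleic acid dye Syto60, suspension lines read with resazurin; signal relative to control wells, capped at 0 and 100%. One two-parameter sigmoid per drug and line, fitted in a mixed model over all curves with the slope shared within a line.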

[2] = compound: CN(c1ncccc1CNc1nc(Nc2ccc3c(c2)CC(=O)N3)ncc1C(F)(F)F)S(C)(=O)=O [PF-562271]; details: top dose 2.56 µM; top dose inferred
Experimental: as §1

[3] = compound: O=C(NC1CC1)c1cccc(-c2ccc3c(NC(=O)C4CC4)n[nH]c3c2)c1 [XMD13-2]; details: top dose 10.24 µM; top dose inferred
Experimental: as §1

[4] = compound: CC1(C)CC(=O)c2c(C(F)(F)F)nn(-c3ccc(C(N)=O)c(N[C@H]4CC[C@H](O)CC4)c3)c2C1 [SNX-2112]; details: top dose 2.56 µM
Experimental: as §1

[5] = compound: CC[C@]1(O)C[C@@H]2CN(CCc3c([nH]c4ccccc34)[C@@](C(=O)OC)(c3cc4c(cc3OC)N(C)[C@H]3[C@@](O)(C(=O)OC)[C@H](OC(C)=O)[C@]5(CC)C=CCN6CC[C@]43[C@@H]65)C2)C1 [Vinblastine]; details: top dose 0.1 µM; top dose inferred
Experimental: as §1

[6] = top dose 0.5 µM, screen: GDSC drug entry 1032
[7] = top dose 10 µM, screen: GDSC drug entry 1377, top dose inferred

Row | Cell Line | AUC [1, 6] | IC50 [1, 6] [µM] | AUC [1, 7] | IC50 [1, 7] [µM] | AUC [2] | AUC [3] | IC50 [3] [µM] | AUC [4] | IC50 [4] [µM] | AUC [5] | IC50 [5] [µM] | IC50 [2] [µM]
1 | Detroit562 (head and neck, adherent) | 0.923 | > 0.5 | 0.978 | > 10 | 0.816 | 0.976 | > 10.2 | 0.928 | > 2.56 | 0.502 | 0.00631 | –
2 | EB2 (Burkitt lymphoma, suspension) | 0.99 | > 0.5 | 0.989 | > 10 | 0.967 | 0.773 | 3.63 | 0.341 | 0.0607 | 0.977 | > 0.1 | > 2.56
3 | EB-3 (Burkitt lymphoma, suspension) | 0.984 | > 0.5 | 0.96 | > 10 | 0.984 | 0.944 | > 10.2 | 0.599 | 0.313 | 0.968 | > 0.1 | > 2.56
4 | EBC-1 (lung squamous cell carcinoma, adherent) | 0.983 | > 0.5 | 0.897 | > 10 | 0.92 | 0.846 | 8.92 | 0.832 | 1.94 | 0.577 | 0.0104 | > 2.56
5 | EC-GI-10 (oesophagus, adherent) | 0.562 | 0.046 | 0.292 | 0.163 | 0.985 | 0.989 | > 10.2 | 0.879 | > 2.56 | 0.393 | 0.00318 | > 2.56
6 | ECC10 (stomach, suspension) | 0.975 | > 0.5 | 0.973 | > 10 | 0.847 | 0.902 | > 10.2 | 0.85 | 2.08 | 0.641 | 0.0156 | 2.01
7 | EFM-192A (breast, adherent) | 0.518 | 0.0353 | 0.654 | 1.76 | 0.694 | 0.98 | > 10.2 | 0.859 | 2.52 | 0.74 | 0.033 | 0.601
8 | EFO-27 (ovary, adherent) | 0.591 | 0.0591 | 0.929 | > 10 | 0.846 | 0.954 | > 10.2 | 0.638 | 0.426 | 0.541 | 0.00832 | > 2.56
9 | EGI-1 (biliary tract, adherent) | 0.975 | > 0.5 | 0.902 | > 10 | 0.909 | 0.963 | > 10.2 | 0.721 | 0.831 | 0.616 | 0.0144 | > 2.56
10 | EJM (lymphoid neoplasm, semi-adherent) | 0.991 | > 0.5 | 0.989 | > 10 | 0.981 | 0.884 | 8.03 | 0.397 | 0.0874 | 0.516 | 0.00685 | > 2.56
11 | EKVX (lung adenocarcinoma, adherent) | 0.743 | 0.361 | 0.651 | 2.65 | 0.937 | 0.96 | > 10.2 | 0.859 | > 2.56 | 0.887 | > 0.1 | > 2.56
12 | EM-2 (chronic myeloid leukaemia, suspension) | 0.973 | > 0.5 | 0.946 | > 10 | 0.917 | 0.865 | > 10.2 | 0.339 | 0.0536 | 0.43 | 0.00391 | > 2.56
13 | EN (endometrium, adherent) | 0.984 | > 0.5 | 0.981 | > 10 | 0.966 | 0.869 | > 10.2 | 0.796 | 1.57 | 0.645 | 0.0175 | > 2.56
14 | ES1 (Ewing sarcoma, adherent) | 0.984 | > 0.5 | 0.949 | > 10 | 0.915 | 0.651 | 1.66 | 0.278 | 0.038 | 0.509 | 0.0066 | > 2.56
15 | ES4 (Ewing sarcoma, adherent) | 0.826 | 0.366 | 0.763 | 4.11 | 0.915 | 0.868 | > 10.2 | 0.563 | 0.243 | 0.619 | 0.014 | > 2.56
16 | ES5 (Ewing sarcoma, adherent) | 0.934 | > 0.5 | 0.96 | > 10 | 0.91 | 0.703 | 2.62 | 0.351 | 0.058 | 0.464 | 0.00493 | > 2.56
17 | ES6 (Ewing sarcoma, adherent) | 0.982 | > 0.5 | 0.953 | > 10 | 0.926 | 0.943 | > 10.2 | 0.53 | 0.197 | 0.827 | 0.0818 | > 2.56
18 | ES7 (Ewing sarcoma, adherent) | 0.968 | > 0.5 | 0.849 | 7.79 | 0.984 | 0.639 | 1.57 | 0.208 | 0.0215 | 0.47 | 0.00515 | > 2.56
19 | ES8 (Ewing sarcoma, adherent) | 0.969 | > 0.5 | 0.971 | > 10 | 0.85 | 0.677 | 1.91 | 0.291 | 0.0435 | 0.363 | 0.0027 | 1.72
20 | ES-2 (ovary, adherent) | 0.989 | > 0.5 | 0.99 | > 10 | 0.991 | 0.984 | > 10.2 | 0.44 | 0.112 | 0.717 | 0.0235 | > 2.56
21 | ESS-1 (endometrium, adherent) | 0.99 | > 0.5 | 0.989 | > 10 | 0.931 | 0.938 | > 10.2 | 0.984 | > 2.56 | 0.407 | 0.00357 | > 2.56
22 | ETK-1 (biliary tract, adherent) | 0.858 | 0.5 | 0.792 | 5.21 | 0.85 | 0.883 | > 10.2 | 0.364 | 0.064 | 0.504 | 0.0064 | 2.36

Row | Cell Line | AUC [1, 6] | IC50 [1, 6] [µM] | AUC [1, 7] | IC50 [1, 7] [µM] | AUC [2] | AUC [3] | IC50 [3] [µM] | AUC [4] | IC50 [4] [µM] | AUC [5] | IC50 [5] [µM] | IC50 [2] [µM]
23 | EVSA-T (breast, adherent) | 0.977 | > 0.5 | 0.991 | > 10 | 0.988 | 0.966 | > 10.2 | 0.769 | 0.834 | 0.677 | 0.018 | > 2.56
24 | EW-1 (Ewing sarcoma, semi-adherent) | 0.989 | > 0.5 | 0.987 | > 10 | 0.923 | 0.822 | 5.37 | 0.257 | 0.0347 | 0.423 | 0.00393 | > 2.56
25 | EW-3 (Ewing sarcoma, adherent) | 0.98 | > 0.5 | 0.895 | > 10 | 0.984 | 0.881 | > 10.2 | 0.487 | 0.147 | 0.631 | 0.0152 | > 2.56
26 | EW-7 (Ewing sarcoma, semi-adherent) | 0.981 | > 0.5 | 0.983 | > 10 | 0.908 | 0.876 | 8.06 | 0.235 | 0.0308 | 0.866 | 0.0719 | > 2.56
27 | EW-11 (Ewing sarcoma, adherent) | 0.952 | > 0.5 | 0.89 | > 10 | 0.933 | 0.852 | > 10.2 | 0.549 | 0.226 | 0.542 | 0.00841 | > 2.56
28 | EW-13 (Ewing sarcoma, suspension) | 0.976 | > 0.5 | 0.982 | > 10 | 0.833 | 0.765 | 4.15 | 0.32 | 0.0472 | 0.927 | > 0.1 | 1.91
29 | EW-16 (Ewing sarcoma, adherent) | 0.971 | > 0.5 | 0.886 | > 10 | 0.855 | 0.848 | 8.15 | 0.577 | 0.263 | 0.562 | 0.0093 | 2.19
30 | EW-18 (Ewing sarcoma, suspension) | 0.975 | > 0.5 | 0.962 | > 10 | 0.891 | 0.71 | 2.62 | 0.486 | 0.146 | 0.536 | 0.0079 | > 2.56
31 | EW-24 (Ewing sarcoma, semi-adherent) | 0.99 | > 0.5 | 0.991 | > 10 | 0.992 | 0.992 | > 10.2 | 0.837 | 1.43 | 0.925 | > 0.1 | > 2.56
32 | EoL-1-cell (haematopoietic neoplasm, suspension) | 0.963 | > 0.5 | 0.935 | > 10 | 0.906 | 0.869 | 7.62 | 0.217 | 0.027 | 0.27 | 0.00152 | > 2.56
33 | FADU (head and neck, adherent) | 0.55 | 0.0427 | 0.703 | 2.27 | 0.967 | 0.96 | > 10.2 | 0.811 | 1.3 | 0.671 | 0.0183 | > 2.56
34 | FTC-133 (thyroid, adherent) | 0.966 | > 0.5 | 0.881 | > 10 | 0.979 | 0.983 | > 10.2 | 0.956 | > 2.56 | 0.586 | 0.011 | > 2.56
35 | FU97 (stomach, adherent) | 0.978 | > 0.5 | 0.984 | > 10 | 0.927 | 0.971 | > 10.2 | 0.875 | > 2.56 | 0.812 | 0.0554 | > 2.56
36 | FU-OV-1 (ovary, adherent) | 0.936 | > 0.5 | 0.926 | > 10 | 0.931 | 0.972 | > 10.2 | 0.899 | > 2.56 | 0.893 | > 0.1 | > 2.56
37 | G-292 Clone A141B1 (osteosarcoma, adherent) | 0.976 | > 0.5 | 0.947 | > 10 | 0.525 | 0.972 | > 10.2 | 0.784 | 1.9 | 0.684 | 0.028 | 0.195
38 | G-361 (melanoma, adherent) | 0.982 | > 0.5 | 0.987 | > 10 | 0.898 | 0.985 | > 10.2 | 0.694 | 0.546 | 0.739 | 0.0291 | > 2.56
39 | G-401 (kidney, adherent) | 0.879 | > 0.5 | 0.923 | > 10 | 0.858 | 0.956 | > 10.2 | 0.507 | 0.167 | 0.54 | 0.00814 | 2.44
40 | G-402 (soft tissue, adherent) | 0.95 | > 0.5 | 0.95 | > 10 | 0.813 | 0.919 | > 10.2 | 0.686 | 0.635 | 0.556 | 0.00932 | 2
41 | G-MEL (melanoma, adherent) | 0.986 | > 0.5 | 0.967 | > 10 | 0.984 | 0.825 | 6.04 | 0.887 | > 2.56 | 0.358 | 0.00254 | > 2.56
42 | GB-1 (glioma, adherent) | 0.975 | > 0.5 | 0.945 | > 10 | 0.923 | 0.961 | > 10.2 | 0.308 | 0.0416 | 0.765 | 0.0429 | > 2.56
43 | GCIY (stomach, adherent) | 0.824 | 0.351 | – | – | 0.839 | 0.939 | > 10.2 | 0.849 | 2.31 | 0.795 | 0.0536 | 2.09
44 | GDM-1 (acute myeloid leukaemia, suspension) | 0.987 | > 0.5 | 0.965 | > 10 | 0.928 | 0.701 | 2.29 | 0.105 | < 0.01 | 0.963 | > 0.1 | > 2.56
